Data as given in patent publication US8741807B2 (priority 2011, dated 2014).

Legend:
[1] = tested on: OsPR1b, PBZ1, WRKY45, and OsNPR1; assay: Resistance marker gene expression in the presence of polyamine oxygenase inhibitor guazatine or ABA
Protocol: In the graphs, Mock denotes the results obtained with a treatment using a solution not containing a test compound, and ABA denotes results obtained with a treatment using abscisic acid.
(§1) 1 mM Aqueous solutions of the spermidine derivatives were prepared, and added with Tween 20 at a final concentration of 0.01%. Each solution was sprayed on leaf blades of the rice plant cultivated for one week by hydroponics, and after 24 hours, RNAs were extracted. Expression of OsPR1b, PBZ1 and WRKY45, which are rice plant disease damage resistance marker genes, in each sample was measured by using real-time PCR.
In the same manner as that of Example 6, effect of YIS12OH4N (HydLau) at 3 mM on expression of rice plant disease damage resistance marker genes OsPR1b, PBZ1, WRKY45, and OsNPR1 was examined in the presence of 5 mM guazatine (GAZ), which is a polyamine oxygenase (PA) inhibitor.

OsPR1b, PBZ1 and WRKY45 = assay: Expression of rice plant disease damage resistance marker genes by real-time PCR after spraying; details: 1 mM aqueous solution (0.01% Tween 20) sprayed on leaf blades, RNA after 24 hours; tendency
Protocol: as §1
as §1, with “YIS12OH1N (1NHydLau) and YIS12OH4N (HydLau)” for “the spermidine derivatives”

SMILES | effect on disease damage resistance induced by the compound of the present invention ([1]; treatment with abscisic acid together with YIS12OH4N (HydLau, 3 mM), FIG. 14) | expression of resistance marker genes OsPR1b, PBZ1 and WRKY45 (OsPR1b, PBZ1 and WRKY45) | enhancement of expression of rice plant disease damage resistance marker genes in the presence of guazatine ([1]; YIS12OH4N 3 mM with 5 mM guazatine (GAZ))
CC1=CC(=O)CC(C)(C)[C@@]1(O)/C=C/C(C)=C\C(=O)O [ABA, abscisic acid, reference compound] | inhibitory effect against disease damage resistance | – | –
NCCCCNCCCNC(=O)CCCCCCCCCCCO [YIS12OH1N, 1-N-(12-hydroroxylauroyl)-spermidine] | – | induced expression of the resistance marker genes | –
NCCCCN(CCCN)C(=O)CCCCCCCCCCCO [YIS12OH4N, ^4N-(12-hydroroxylauroyl)-spermidine] | – | induced expression of the resistance marker genes | further promoted
